Data published in publication PMC9911399, “Two distinct binding modes provide the RNA-binding protein RbFox with extraordinary sequence specificity”.
Positions count from the first letter of the chain named. The list shows a part of the results.

T1: RBFOX1 RRM (Homo sapiens, UniProt Q9NWB1 109-208)
T1 sequence: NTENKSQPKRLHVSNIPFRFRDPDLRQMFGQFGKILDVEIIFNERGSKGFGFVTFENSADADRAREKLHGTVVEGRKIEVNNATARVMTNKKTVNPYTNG

B1: ACUUAGA (DNA:RNA)
RNA: GGGAGACCGGAAUUCAGAUUGUCCACUUAGAUUAAAUCCCGUCGUAGCCACCA
DNA 1: CAATCTGAATTCCGGTCTCCC
DNA 2: TGGTGGCTACGACGGGATT
B2: AAAUCCC (DNA:RNA)
RNA: B1 RNA with C26A, U27A, A29C, G30C, A31C
DNA 1: CAATCTGAATTCCGGTCTCCC
DNA 2: TGGTGGCTACGACGGGATT
B3: ACGUUAU (DNA:RNA)
RNA: B1 RNA with U27G, A29U, G30A, A31U
DNA 1: CAATCTGAATTCCGGTCTCCC
DNA 2: TGGTGGCTACGACGGGATT
B4: AAUAGCC (DNA:RNA)
RNA: B1 RNA with C26A, U28A, A29G, G30C, A31C
DNA 1: CAATCTGAATTCCGGTCTCCC
DNA 2: TGGTGGCTACGACGGGATT
B5: AGAAGAA (DNA:RNA)
RNA: B1 RNA with C26G, U27A, U28A, A29G, G30A
DNA 1: CAATCTGAATTCCGGTCTCCC
DNA 2: TGGTGGCTACGACGGGATT
B6: CCAAGAA (DNA:RNA)
RNA: B1 RNA with A25C, U27A, U28A, A29G, G30A
DNA 1: CAATCTGAATTCCGGTCTCCC
DNA 2: TGGTGGCTACGACGGGATT
B7: GGGUCUU (DNA:RNA)
RNA: B1 RNA with A25G, C26G, U27G, A29C, G30U, A31U
DNA 1: CAATCTGAATTCCGGTCTCCC
DNA 2: TGGTGGCTACGACGGGATT
B8: UCAUAGG (DNA:RNA)
RNA: B1 RNA with A25U, U27A, A31G
DNA 1: CAATCTGAATTCCGGTCTCCC
DNA 2: TGGTGGCTACGACGGGATT
B9: GCAUCCG (DNA:RNA)
RNA: B1 RNA with A25G, U27A, A29C, G30C, A31G
DNA 1: CAATCTGAATTCCGGTCTCCC
DNA 2: TGGTGGCTACGACGGGATT

Each binder was assayed against T1, RBFOX1 RRM (assay: EMSA; HiTS-Eq, 1 nM pool, 10 min; buffer printed only for the single-RNA assays: 10 mM Tris pH 7.5, 150 mM NaCl, 3.4 mM EDTA, 0.001% NP-40, 30 C). Conditions: tags: His6 N-terminal (pET28a); label: 5' 32P.
Procedure, shortened: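 Relative association constants, normalised to the cognate motif, were derived by comparing read counts of each RNA species with those of the control reaction. The RNA sequenced was the free fraction, separated by 8% native PAGE after a 10 min equilibration in 50 µL of 1 nM 5′-radiolabelled RNA (7 randomized nucleotides) with increasing concentrations of purified wild-type or mutant RbFox RRM.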

| Binder | binding signal |
| --- | --- |
| B1 | 0.00869 KA relative to UGCAUGU |
| B2 | 0.000947 KA relative to UGCAUGU |
| B3 | 0.00327 KA relative to UGCAUGU |
| B4 | 0.00402 KA relative to UGCAUGU |
| B5 | 0.0051 KA relative to UGCAUGU |
| B6 | 0.00338 KA relative to UGCAUGU |
| B7 | 0.00918 KA relative to UGCAUGU |
| B8 | 0.00483 KA relative to UGCAUGU |
| B9 | 0.0325 KA relative to UGCAUGU |
